The chains are these.
T1: CD86 (UniProt P42081 24-247, limits assumed)
T1 construct: also called B7-2
T1 sequence (looked up): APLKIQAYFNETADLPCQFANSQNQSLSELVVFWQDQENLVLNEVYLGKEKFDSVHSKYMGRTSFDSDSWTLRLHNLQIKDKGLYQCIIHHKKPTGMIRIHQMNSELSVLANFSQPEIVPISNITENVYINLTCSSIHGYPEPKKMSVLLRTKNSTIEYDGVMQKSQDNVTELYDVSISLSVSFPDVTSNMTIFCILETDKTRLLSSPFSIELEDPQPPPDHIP

T2: CD80 (UniProt P33681 35-242, limits assumed)
T2 construct: also called B7-1
T2 sequence (looked up): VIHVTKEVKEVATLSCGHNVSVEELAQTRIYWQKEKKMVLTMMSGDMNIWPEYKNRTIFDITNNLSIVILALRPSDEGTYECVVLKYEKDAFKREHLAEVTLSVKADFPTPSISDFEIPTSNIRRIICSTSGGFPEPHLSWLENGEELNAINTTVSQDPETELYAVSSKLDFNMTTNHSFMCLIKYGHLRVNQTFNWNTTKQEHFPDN

B1: CTLA4-Ig variant 112# (Fc fusion)
chain: MHVAQPAVVLASSRGIASFVCEYASPDKAKATEVRVTVLRQTDSQVTEVCAATYMMGNELTFLDDSICTFTSSGNQVNLTIQGLRAMDTGLYICKVELMYPPPYYLGIGNGTQIYVIDSEPCPDSDQ[human IgG1 Fc with changes not given here]
B2: CTLA4-Ig variant 118# (Fc fusion)
chain: MHVAQPAVVLASSRGIASFVCEYASPDKAKATEVRVTVLRQADSQVTEVCAATYMMGNELTFLDDSICTFTSSGNQVNLTIQGLRAMDTGLYICKVELMYPPPYYLGIGNGTQIYVIDSEPCPDSDQ[human IgG1 Fc with changes not given here]
B3: CTLA4-Ig variant 131# (Fc fusion)
chain: MHVAQPAVVLASSRGIASFVCEYASPDKAKATEVRVTVLRQTDSQVTEVCAATYMMGNELTFLDDSICTFTSSGNQVNLTIQGLRAMDTGLYICKVELMYPPPYYLGIGNGTQIYVIDPEPCPDSDQ[human IgG1 Fc with changes not given here]
B4: CTLA4-Ig variant 117# (Fc fusion)
chain: MHVAQPAVVLASSRGIASFVCEYASPKKKATEVRVTVLRQADSQVTEVCAATYMMGNELTFLDDSICTFTSSGNQVNLTIQGLRAMDTGLYICKVELMYPPPYYLGIGNGTQIYVIDPEPCPDSDQ[human IgG1 Fc with changes not given here]
B5: CTLA4-Ig variant 121# (Fc fusion)
chain: MHVAQPAVVLASSRGIASFVCEYASPDKKATEVRVTVLRQADSQVTEVCAATYMMGNELTFLDDSICTFTSSGNQVNVTIQGLRAMDTGLYICKVELMYPPPYYLSIGNGTQIYVIDSEPCPDSDQ[human IgG1 Fc with changes not given here]
B6: CTLA4-Ig variant 120# (Fc fusion)
chain: MHVAQPAVVLASSRGIASFVCEYASPDKKATEVRVTVLRQTDSQVTEVCAATYMMGNELTFLDDSICTFTSSGNQVNLTIQGLRAMDTGLYICKVELMYPPPYYLGIGNGTQIYVIDPEPCPDSDQ[human IgG1 Fc with changes not given here]
B7: CTLA4-Ig variant 122# (Fc fusion)
chain: MHVAQPAVVLASSRGIASFVCEYASPDKKATEVRVTVLRQADSQVTEVCAATYMMGNELTFLDDSICTFTSSGNQVNVTIQGLRAMDTGLYICKVELMYPPPYYLGIGNGTQIYVIDPEPCPDSDQ[human IgG1 Fc with changes not given here]

The first experiment concerns the target T1, CD86. The experiment can be described thus: SPR BIAcore 3000, 25 C; CTLA4-Ig on chip, CD86 analyte. A general note: In SPR one partner is held on a chip, and binding of the other changes the refractive index at the surface.
For the molecule B1, binding was put at a Kd of 0.839 nM, the “Relative affinity (KD(abatacept)/KD(variant))” value (shortened to “Relative affinity”) was found to be 8.33, the dissociation rate constant (koff) was 0.000347 s⁻¹ and the kon was 414000 M⁻¹ s⁻¹.

Consider B2, for which the Kd is 0.758 nM, the “Relative affinity” value is 9.22, the off-rate constant (koff) is 0.000292 s⁻¹ and the kon came to 385000 M⁻¹ s⁻¹.

Consider B3, for which the Kd worked out at 0.705 nM, the “Relative affinity” value was 9.91, the koff was found to be 0.00029 s⁻¹ and the kon is 411000 M⁻¹ s⁻¹.

With B4, the Kd was found to be 4.68 nM, the “Relative affinity” value is 1.49, the koff amounted to 0.00236 s⁻¹ and the kon came to 504000 M⁻¹ s⁻¹.

As for B5, the Kd was determined as 4.58 nM, the “Relative affinity” value stood at 1.53, the koff was found to be 0.00259 s⁻¹ and the kon turned out to be 566000 M⁻¹ s⁻¹.

As to B6, the Kd came out at 4.09 nM, the “Relative affinity” value worked out at 1.71, the koff stood at 0.00274 s⁻¹ and the kon was 670000 M⁻¹ s⁻¹.

Regarding B7, the Kd was 4.13 nM, the “Relative affinity” value is 1.69, the koff came out at 0.00229 s⁻¹ and the kon worked out at 554000 M⁻¹ s⁻¹.

For a further experiment, the target named is T2, CD80. The experiment can be described thus: SPR BIAcore 3000, 25 C; CTLA4-Ig on chip, CD80 analyte.
For B1, the Kd was 0.122 nM, the “Relative affinity” value is 24.5, the koff was determined as 4.24e-05 s⁻¹ and the kon was determined as 348000 M⁻¹ s⁻¹.

For the molecule B2, the Kd is 0.131 nM, the “Relative affinity” value was found to be 22.8, the koff worked out at 4.24e-05 s⁻¹ and the kon stood at 324000 M⁻¹ s⁻¹.

For the molecule B3, the equilibrium dissociation constant (Kd) worked out at 0.0562 nM, the “Relative affinity” value came to 53.2, the koff turned out to be 1.95e-05 s⁻¹ and the kon was found to be 347000 M⁻¹ s⁻¹.

For the molecule B4, the Kd was 0.631 nM, the “Relative affinity” value stood at 4.74, the koff amounted to 0.000181 s⁻¹ and the kon turned out to be 287000 M⁻¹ s⁻¹.

Regarding B5, the affinity, expressed as Kd, was 0.0785 nM; the “Relative affinity” value was found to be 38.1; the koff turned out to be 2.66e-05 s⁻¹; the kon amounted to 339000 M⁻¹ s⁻¹.

Regarding B6, the affinity, expressed as Kd, was 0.13 nM; the “Relative affinity” value is 23; the koff was 5.04e-05 s⁻¹; the kon came to 389000 M⁻¹ s⁻¹.

B7: binding was characterised by a dissociation constant (Kd) of 0.0425 nM, the “Relative affinity” value came to 70.3, the koff was 1.41e-05 s⁻¹ and the kon was found to be 331000 M⁻¹ s⁻¹.

A word on the Kd: it is the constant that tells how readily two partners part at equilibrium. A higher Kd goes with weaker binding. The term koff denotes a measure of how fast the partners let go of each other. Lower therefore signals a long-lived complex. The term kon denotes a measure of how fast the partners come together. A lower kon goes with slower complex formation.

The values are drawn from patent US20210340213A1 (BEIJING VDJBIO, published 2021).
